The text below walks through data of PubChem BioAssay (NCATS).

Results filed as inconclusive are left out. Calls come from the whole dose curve; as a rule, active = well fitted cell-killing curve with a large enough effect; inconclusive = small, poorly fitted or top-dose-only effect; inactive = no such curve, though single readings can be large or run the other way. Some compounds were tested as several samples or in several runs, with calls that do not always agree. For part of its entries the source gives two or more results. This is not the full list of results. An entry can have further records. Values given together are repeated measurements (runs, samples, wells, individuals or studies). Marks in square brackets tell the records apart. The letters are not those of the source and start again with each entry.
Potency is the fitted concentration of half-maximal effect.

The first assay can be described thus: qHTS of pediatric cancer cell lines to identify multiple opportunities for drug repurposing: Primary screen for OHS-50 cells (AID 1347103). Note: nearly all actives have a fitted effect of over 40% in size. The note with it: OHS-50 osteosarcoma viability, CellTiter-Glo luminescence, 48 h; series mostly up to 57.3 µM. In a few lines:
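Cells (500-1,000/well) rested 5 h, then received compounds for 48 h; metabolically active cells were measured by CellTiter-Glo luminescence. Final concentrations spanned up to 46 µM (MIPE, 11-point) or 0.59 nM-46 µM (NPC, 8-point) in primary screens, 11-point in follow-ups.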
For the compound `NC(=O)NO`, the Potency result is “inactive [sample A] and active: 7.69 µM [sample B]”.
Still for that read-out and setting: under `Cn1cnc2c1c(=O)[nH]c(=O)n2C` stands “inactive [sample A] and active: 19.3 µM [sample B]”; under `Nc1nc2c(ncn2COC(CO)CO)c(=O)[nH]1`, “active: 27.3 µM [sample A] and inactive [sample B]”.

The next assay in a line: qHTS of pediatric cancer cell lines to identify multiple opportunities for drug repurposing: Primary screen for MG 63 (6-TG R) cells (AID 1347105). Note: nearly all actives have a fitted effect of over 50% in size. As to conditions: MG 63 (6-TG R) viability, CellTiter-Glo, 48 h; series mostly up to 46 µM. In a few lines: (§1)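 Primary screen of approved and investigational compounds on cells in growth media at 37 degrees C, 5% CO2. MIPE set at 11-point and NPC set at 8-point dilutions; viability scored by ATP-based luminescence at 48 hours.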
Turning to `CCC1(c2ccccc2)C(=O)NCNC1=O`, the Potency result was “active: 5.9 µM [sample A] and inactive [sample B]”.
Take `CC(C)C(=O)Nc1ccc([N+](=O)[O-])c(C(F)(F)F)c1`: the Potency result is “inactive [sample A] and active: 9.35 µM [sample B]”.
Same read-out and setting: with `CN(C)CCCN1c2ccccc2CCc2ccc(Cl)cc21` the entry was “active: 372 nM [sample A] and inactive [sample B]”; with `NC(=O)NO`, “inactive [sample A] and active: 743 nM [sample B]”.
Still for that read-out and setting: under `Cn1cnc2c1c(=O)[nH]c(=O)n2C` stands “inactive [sample A] and active: 23.5 µM [sample B]”; under `CC(C)NCC(O)c1ccc(O)c(O)c1` (configuration not stated), “active: 5.9 µM [sample A] and inactive [sample B]”; under `Nc1nc2c(ncn2COC(CO)CO)c(=O)[nH]1`, “active: 29.6 µM [sample A] and inactive [sample B]”.
Regarding `OCCN(CCO)c1nc(N2CCCCC2)c2nc(N(CCO)CCO)nc(N3CCCCC3)c2n1`, the Potency result is “active: 29.6 µM [sample A] and inactive [sample B]”.

The next assay is described as follows: qHTS of pediatric cancer cell lines to identify multiple opportunities for drug repurposing: Primary screen for Rh41 cells (AID 1347108). Note: nearly all actives have a fitted effect of over 70% in size. The note with it: Rh41 rhabdomyosarcoma viability, CellTiter-Glo luminescence, 48 h; series mostly up to 46 µM. In a few lines:
as §1
With `C[C@@H]1CC(=O)NN=C1c1ccc(NN=C(C#N)C#N)cc1`, the Potency entry is “inactive [sample A] and active: 20.9 µM [sample B]”.
Still for that read-out and setting: with `NC(=O)NO` the entry was “inactive [sample A] and active: 2.35 µM [sample B]”; with `Cn1cnc2c1c(=O)[nH]c(=O)n2C`, “inactive [sample A] and active: 18.7 µM [sample B]”.
With `CC(C)NCC(O)c1ccc(O)c(O)c1` (configuration not stated), the Potency result is “active: 2.96 µM [sample A] and inactive [sample B]”.
As to `CC12CC3CC(C)(C1)CC(N)(C3)C2`, the Potency result is “active: 11.8 µM [sample A] and inactive [sample B]”.
Consider `Nc1nc2c(ncn2COC(CO)CO)c(=O)[nH]1`, for which the Potency entry is “active: 23.5 µM [sample A] and inactive [sample B]”.
